Assay results published in PubChem BioAssay AID2060509 (Molecular Pharmacology Branch, DTP, NCI, 2025).
Certain results were filed several times, with different values. This list holds those alone. An entry can have further records. The values listed for one entry repeat one measurement (runs, samples, wells, individuals or studies). Marks such as (2×) give the number of equal values in this list.

Tested on: 485176-168-R4-J1-PDC spheroids with HUVEC/MSC, viability
Assay: Anticancer human tumor 485176-168-R4-J1-PDC patient-derived pancreatic adenocarcinoma cell line growth inhibition [GQUAD]
Conditions: stronger effect = lower value
Excerpt: DNA G-quadruplex Stabilizer Agents in Combinations in Complex Spheroids
A high-throughput screen of multi-cell type tumor spheroids was designed to identify active combinations of DNA G-quadruplex stabilizer agents and targeted small molecules. Complex spheroids include a stromal component modeled by human endothelial cells (HUVEC) and fibroblasts modeled by human mesenchymal stem cells (MSCs). The concentration ranges selected for each drug and investigational agent were based upon clinically achievable concentrations if the clinical Cmax of the agent was known.
Compounds. The drugs and investigational agents: pidnarulex (CX-5461; NSC782164), APTO-253 (NSC789042), BRACO-19 (NSC847499), peposertib (NSC802822), ceralasertib (NSC780249), elimusertib (NSC800525), camonsertib (NSC841442), AZD-1390 (NSC803789), olaparib (NSC753686), talazoparib (NSC767125), ART-558 (NSC835418), sotorasib (NSC818433), MRTX-1133 (NSC836407), SN-38 (NSC673596), topotecan (NSC609699), etoposide (NSC141540), doxorubicin (NSC123127), gemcitabine (NSC613327), 5-fluorouracil (NSC19893), paclitaxel (NSC125973), vemurafenib (NSC761431), panobinostat (NSC761190), R-306465 (JNJ-16241199; NSC773264), adavosertib (NSC754352), TP-3654 (NSC805149), carboplatin (NSC241240), KSQ-4279 (NSC840948), and staurosporine (NSC755774) were obtained from the National Cancer Institute (NCI) Developmental Therapeutics Program Chemical Repository (34). The FDA-approved anticancer drug set is available from the NCI Developmental Therapeutics Program. […] The stock solutions were prepared in dimethyl sulfoxide (DMSO, Sigma-Aldrich, St. Louis, MO, cat. D2650) at 800-fold the tested concentration and stored at -70 degrees C prior to their use. All drugs and investigational agents were tested over a range starting from a high concentration at or near the clinical Cmax and decreasing in half-log increments. If the clinical Cmax for an agent had not been determined, the highest concentration tested was 10 microM.
2.3 Cell Culture. All cells were maintained in an incubator at 37 degrees C and 5% CO2 with 95% humidity. The PDC lines were cultured according to standard operating procedures established by the NCI PDMR. All PDCs were thawed and cultured in Matrigel-coated flasks prepared with a working solution of 1X Ham's F-12 nutrient mix, without supplementation (Invitrogen, cat. 11765054), 100 U/mL penicillin-streptomycin (Invitrogen, cat. 15140122), and 2.5% Matrigel (Corning Inc., cat. 354248) for the first three passages. […]
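Note: spheroids exposed to compounds for seven days before readout; percent viability relative to DMSO vehicle control wells as 100%.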

For `Cc1[nH]c2ccc(F)cc2c1-c1nc2c3cccnc3c3ncccc3c2[nH]1`, the viability, T/C (compound alone 0.0316 µM) was 101 (3×), 92.2, 95.4, 93.5, 112, 100, 84.9, 87.1, 92, 93.2% and the viability, T/C (compound alone 3.16 µM) was 68.9, 79.7, 83.7, 81.3, 67.9, 82.4 (2×), 82.6, 73.8, 99, 102, 87.3%.
For `CN(C)c1ccc(Nc2c3ccc(NC(=O)CCN4CCCC4)cc3nc3cc(NC(=O)CCN4CCCC4)ccc23)cc1`, the viability, T/C (compound alone 0.1 µM) was 94.5, 107, 121, 106 (2×), 95.4, 94.6, 98.2, 92.2, 95.7, 91.8, 100% and the viability, T/C (compound alone 1 µM) was 89.5, 99.6, 78.8, 101 (2×), 98.3, 103, 90.9, 95.7, 105, 94.5, 96.6%.
